From the supplement of paper PMC11876631
Positions count from the first letter of the chain named. Names may count otherwise. ± gives the standard deviation of the averaged measurements. Laboratory Escherichia coli strains with one amino-acid change in an essential protein, pooled on minimal glucose agar with carbenicillin or gentamicin at twice the control MIC (plus kanamycin and chloramphenicol for the plasmids), 48 h. Fold change of barcode share against drug-free plates; higher = less susceptible. Active = above 20 in both replicates (the paper's putatively resistant). '<' = one read or none on drug, '>' = one read or none on a drug-free plate. Shares are relative, so most strains fall below 1 when a few take over. Listed are strains with at least 15 reads on both drug-free plates, and hits; most hits rest on fewer reference reads. Replicate rank correlation about 0.5. Edits are read from barcodes.

B1: carA L209Q (protein)
chain: MIKSALLVLEDGTQFHGRAIGATGSAVGEVVFNTSMTGYQEILTDPSYSRQIVTLTYPHIGNVGTNDADEESSQVHAQGLVIRDLPLIASNFRNTEDLSSYLKRHNIVAIADIDTRKLTRLLREKGAQNGCIIAGDNPDAALALEKARAFPGLNGMDLAKEVTTAEAYSWTQGSWTLTGGLPEAKKEDELPFHVVAYDFGAKRNILRMQVDRGCRLTIVPAQTSAEDVLKMNPDGIFLSNGPGDPAPCDYAITAIQKFLETDIPVFGICLGHQLLALASGAKTVKMKFGHHGGNHPVKDVEKNVVMITAQNHGFAVDEATLPANLRVTHKSLFDGTLQGIHRTDKPAFSFQGHPEASPGPHDAAPLFDHFIELIEQYRKTAK
B2: carA L209P (protein)
chain: B1 chain with Q209P
B3: carA F266A (protein)
chain: B1 chain with Q209L, F266A
B4: carA F266W (protein)
chain: B1 chain with Q209L, F266W
B5: carA F266D (protein)
chain: B1 chain with Q209L, F266D
B6: tyrS F271Q (protein)
chain: MASSNLIKQLQERGLVAQVTDEEALAERLAQGPIALYCGFDPTADSLHLGHLVPLLCLKRFQQAGHKPVALVGGATGLIGDPSFKAAERKLNTEETVQEWVDKIRKQVAPFLDFDCGENSAIAANNYDWFGNMNVLTFLRDIGKHFSVNQMINKEAVKQRLNREDQGISFTEFSYNLLQGYDFACLNKQYGVVLQIGGSDQWGNITSGIDLTRRLHQNQVFGLTVPLITKADGTKFGKTEGGAVWLDPKKTSPYKFYQFWINTADADVYRQLKFFTFMSIEEINALEEEDKNSGKAPRAQYVLAEQVTRLVHGEEGLQAAKRITECLFSGSLSALSEADFEQLAQDGVPMVEMEKGADLMQALVDSELQPSRGQARKTIASNAITINGEKQSDPEYFFKEEDRLFGRFTLLRRGKKNYCLICWK
B7: carA L206A (protein)
chain: B1 chain with L206A, Q209L

Each protein was assayed against Escherichia coli (laboratory strain) (assay: barcode share on antibiotic plates over drug-free plates; higher = less susceptible). Conditions: antibiotic: carbenicillin; 2× MIC (3.1 µg/mL).
Experimental: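 A pool of E. coli strains, each edited to carry one amino-acid change in an essential protein, was grown for 48 h on minimal glucose agar with or without antibiotic; strain barcodes were sequenced; mean of two replicates.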

Protein	fold change of barcode share
B1	0.368 ± 0.071
B2	0.4 ± 0.1
B3	0.345 ± 0.27
B4	0.258 ± 0.091
B5	0.236 ± 0.0085
B6	0.259 ± 0.13
B7	0.626 ± 0.11

Same assay, conditions: antibiotic: gentamicin; 2× MIC (MIC 0.45 µg/mL)

Protein	fold change of barcode share
B1	< 0.00732
B2	0.0193 ± 0.0023
B4	0.0183 ± 0.016
B7	0.00606 ± 0.0023
